Test results as given in article PMC4336329 (PLoS ONE, 2015).
The whole screen tested about 310,000 compounds, of which about 14,000 (4.5%) showed an effect of 50% or more. The effect is printed as a negative number. The list shows a part of the results.
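Note: peak tail current of the secondary pulse compared with the same well before compound.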

These compounds were tested against human ether-à-go-go-related gene (hERG) potassium channel (human, UniProt Q12809) (assay: primary screen, population patch clamp on CHO cells stably expressing hERG).
Chain of human ether-à-go-go-related gene (hERG) potassium channel (Q12809 whole entry, looked up): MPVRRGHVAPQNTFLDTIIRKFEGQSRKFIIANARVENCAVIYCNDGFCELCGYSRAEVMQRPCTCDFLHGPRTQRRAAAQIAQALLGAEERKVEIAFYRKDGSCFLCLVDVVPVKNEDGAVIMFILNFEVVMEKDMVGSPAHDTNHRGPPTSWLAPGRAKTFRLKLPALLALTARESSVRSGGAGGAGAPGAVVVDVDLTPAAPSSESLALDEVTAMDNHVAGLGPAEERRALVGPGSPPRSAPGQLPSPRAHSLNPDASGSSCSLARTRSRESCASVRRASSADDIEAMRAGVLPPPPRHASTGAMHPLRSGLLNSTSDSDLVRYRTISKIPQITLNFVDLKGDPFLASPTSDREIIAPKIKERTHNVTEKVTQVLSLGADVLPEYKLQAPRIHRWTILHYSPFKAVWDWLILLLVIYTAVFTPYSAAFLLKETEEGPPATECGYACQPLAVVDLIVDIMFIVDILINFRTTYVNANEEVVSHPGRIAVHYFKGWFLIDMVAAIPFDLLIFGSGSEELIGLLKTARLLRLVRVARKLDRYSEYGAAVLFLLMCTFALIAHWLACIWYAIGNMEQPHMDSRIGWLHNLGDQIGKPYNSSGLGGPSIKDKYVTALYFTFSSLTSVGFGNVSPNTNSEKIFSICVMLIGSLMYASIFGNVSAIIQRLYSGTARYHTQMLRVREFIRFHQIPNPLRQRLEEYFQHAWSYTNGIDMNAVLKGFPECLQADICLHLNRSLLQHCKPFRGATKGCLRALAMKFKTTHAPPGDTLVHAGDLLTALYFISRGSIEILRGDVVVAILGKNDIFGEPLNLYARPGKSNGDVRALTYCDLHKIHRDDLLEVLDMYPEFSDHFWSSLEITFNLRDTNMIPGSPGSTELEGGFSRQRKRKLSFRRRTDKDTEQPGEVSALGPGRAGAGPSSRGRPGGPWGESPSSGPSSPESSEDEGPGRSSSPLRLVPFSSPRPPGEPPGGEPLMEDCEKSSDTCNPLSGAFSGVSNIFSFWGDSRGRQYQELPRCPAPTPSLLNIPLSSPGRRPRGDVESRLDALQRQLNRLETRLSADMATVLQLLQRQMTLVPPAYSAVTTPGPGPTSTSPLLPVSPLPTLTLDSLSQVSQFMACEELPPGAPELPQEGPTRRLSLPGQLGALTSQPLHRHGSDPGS
`Cc1ccc(N2CC(C(=O)OCC(=O)c3ccc[nH]3)CC2=O)cc1` (centres unmarked) was tested, and the “hERG current change (%, negative = inhibition) at 10uM” value was -24.2%. `Cc1ccc(CN(c2ccc(C(=O)Nc3cccnc3)cc2)S(C)(=O)=O)cc1` was tested, and the “hERG current change (%, negative = inhibition) at 10uM” value was -11.2%. `CCN1C(c2ccccc2)=C(c2ccccc2)S/C1=C\C=C1/SC(=S)N(C)C1=O` was tested, and the “hERG current change (%, negative = inhibition) at 10uM” value was 15%. In the case of `Cc1ccc(NC(=S)N/N=C2/CCCc3c(C)cc(C)cc32)cc1`, the “hERG current change (%, negative = inhibition) at 10uM” value is reported as -6.41%. `Cc1ccc(NC(=S)N/N=C/c2c(C)nn(-c3ccccc3)c2N2CCCC2)cc1` was tested, and the “hERG current change (%, negative = inhibition) at 10uM” value was 12.5%. With `NC(=O)c1ccc(-c2nnn(CC(=O)N(C3CCCCC3)C3CCS(=O)(=O)C3)n2)cc1` (centres unmarked) the “hERG current change (%, negative = inhibition) at 10uM” value was 10%. `CCCOc1ccc(Cc2c(Cl)nc(SC)nc2NC)cc1` was tested, and the “hERG current change (%, negative = inhibition) at 10uM” value was 16.9%. With `Cc1ccc(C(C)C)c(OCCN2CCc3ccccc3C2)c1.Cl` the “hERG current change (%, negative = inhibition) at 10uM” value was 14.5%. With `COc1ccc2cc(C#N)c(Nc3cccc(F)c3)nc2c1` the “hERG current change (%, negative = inhibition) at 10uM” value was 27.2%. `CCNC(=S)N(Cc1ccccc1)Cc1nc2ccccc2c(=O)[nH]1` was tested, and the “hERG current change (%, negative = inhibition) at 10uM” value was -7.25%. `COC(=O)c1sc(N)c(C(=O)OC)c1CSc1nnnn1C` was tested, and the “hERG current change (%, negative = inhibition) at 10uM” value was -12.2%. `O=C(C1CCC(C(=O)N2CCCCC2)CC1)N1CCCCC1` (centres unmarked) was tested, and the “hERG current change (%, negative = inhibition) at 10uM” value was 6.09%. With `Cc1ccc(-c2cc(C(F)F)nc3sc4c(=O)[nH]cnc4c23)cc1` the “hERG current change (%, negative = inhibition) at 10uM” value was 6.02%. For `COc1ccccc1CN1CC(C(=O)N(Cc2cnn(C)c2)C(C)C)CCC1=O` (centres unmarked), the “hERG current change (%, negative = inhibition) at 10uM” value was -4.71%. With `CC(=O)OC[C@H]1O[C@@H](Sc2cccc3cccnc23)[C@H](OC(C)=O)[C@@H](OC(C)=O)[C@@H]1OC(C)=O` the “hERG current change (%, negative = inhibition) at 10uM” value was -11.4%. With `CC1CCN(C(=O)COc2ccc(S(=O)(=O)N3CCOCC3)cc2)CC1` the “hERG current change (%, negative = inhibition) at 10uM” value was -1.39%. `Cc1ccc(C)c(Cn2c3ccccc3c3cnn(CC(=O)NCCN4CCOCC4)c(=O)c32)c1` was tested, and the “hERG current change (%, negative = inhibition) at 10uM” value was -45%. In the case of `CCC(c1nnnn1Cc1ccco1)N(Cc1cc2cc(OC)ccc2[nH]c1=O)C1CCCCC1` (centres unmarked), the “hERG current change (%, negative = inhibition) at 10uM” value is reported as -6.37%. In the case of `Oc1cccc(O)c1O`, the “hERG current change (%, negative = inhibition) at 10uM” value is reported as 18.3%. For `CC(=O)c1c(C)[nH]c(C(=O)OCC(=O)NCc2ccc3c(c2)OCO3)c1C`, the “hERG current change (%, negative = inhibition) at 10uM” value was 9.8%. In the case of `O=C(O)C(=O)Nc1ccc(NC(=O)C(c2ccccc2)c2ccccc2)cc1`, the “hERG current change (%, negative = inhibition) at 10uM” value is reported as 20.9%. With `CS(=O)(=O)N1CCCC(C(=O)NCc2cccs2)C1` (centres unmarked) the “hERG current change (%, negative = inhibition) at 10uM” value was 2.92%. `O=C(Cc1c(Cl)cccc1Cl)N/N=C/c1cccnc1` was tested, and the “hERG current change (%, negative = inhibition) at 10uM” value was 5.87%. In the case of `C#Cc1ccc([C@H]2C=C(C(=O)N3CCN(Cc4ccc5c(c4)OCO5)CC3)O[C@@H](OCc3ccc(CO)cc3)C2)cc1`, the “hERG current change (%, negative = inhibition) at 10uM” value is reported as -7.23%. `CCCn1nc2cc(C(=O)NCCc3ccc(C)cc3)ccc2c1OCC` was tested, and the “hERG current change (%, negative = inhibition) at 10uM” value was -25.8%. In the case of `CNc1nc(N)c([N+](=O)[O-])c(N2CCCCCC2)n1`, the “hERG current change (%, negative = inhibition) at 10uM” value is reported as 17.5%. For `COc1ccc(NC(=O)CC23CC4CC(C2)CC(n2nnc(C)n2)(C4)C3)cc1`, the “hERG current change (%, negative = inhibition) at 10uM” value was -7.42%. With `COCCNC(=S)N1CCC(NC(=O)C23CC4CC(CC(C4)C2)C3)CC1` the “hERG current change (%, negative = inhibition) at 10uM” value was -0.986%. For `O=C(CSc1ccccc1)NN1C(=O)c2ccccc2C1=O`, the “hERG current change (%, negative = inhibition) at 10uM” value was 13.6%. With `CNC(=O)c1[nH]cnc1C(=O)NCC(=O)OC(C)(C)C` the “hERG current change (%, negative = inhibition) at 10uM” value was -3.22%. With `O=C(NCc1cccs1)c1cc(-c2ccccn2)nc2ccc(Br)cc12` the “hERG current change (%, negative = inhibition) at 10uM” value was 18.2%. In the case of `O=C1OC2(CCCCC2)OC(=O)C1=CNc1ccc2c(c1)OCO2`, the “hERG current change (%, negative = inhibition) at 10uM” value is reported as 3.56%. `Cc1nnnn1-c1ccc(CC(=O)O)cc1` was tested, and the “hERG current change (%, negative = inhibition) at 10uM” value was 5.43%. With `COc1ccc(-c2[nH]nc3c2C(c2ccccc2OC(=O)N2CCOCC2)C(C#N)=C(N)O3)cc1` (centres unmarked) the “hERG current change (%, negative = inhibition) at 10uM” value was 4.69%. With `COc1ccc(CNC(=O)c2csc(Cc3ccccc3)n2)cc1` the “hERG current change (%, negative = inhibition) at 10uM” value was -11.6%. With `COc1ccc(OC)c(C2C3=C(CCCC3=O)Nc3c2c(=O)n(C)c(=O)n3C)c1` (centres unmarked) the “hERG current change (%, negative = inhibition) at 10uM” value was -19%. With `CCCCS(=O)CC(O)COCC` (centres unmarked) the “hERG current change (%, negative = inhibition) at 10uM” value was 9.24%. For `CC(Sc1nc(N)cc(=O)[nH]1)C(=O)Nc1nc2c(s1)CCCC2` (centres unmarked), the “hERG current change (%, negative = inhibition) at 10uM” value was 18.7%. With `C=C(C)CN(CC)C(=O)CN1C(=O)NC2(CCCc3ccccc32)C1=O` (centres unmarked) the “hERG current change (%, negative = inhibition) at 10uM” value was 11.8%. For `CCc1ccc(C(=O)NNC(=O)c2ccc(=O)n(C)n2)cc1`, the “hERG current change (%, negative = inhibition) at 10uM” value was 10%. For `CCCOc1ccccc1OCC(=O)Nc1ccc(S(=O)(=O)N2CCCCC2)cc1`, the “hERG current change (%, negative = inhibition) at 10uM” value was 7.99%. In the case of `Cc1cc(C)n2nc(SCC(=O)NC3CCCCC3C)nc2n1` (centres unmarked), the “hERG current change (%, negative = inhibition) at 10uM” value is reported as 14.6%. With `Cc1ccc(S(=O)(=O)CCC(=O)Nc2ccc3c(c2)OCO3)cc1` the “hERG current change (%, negative = inhibition) at 10uM” value was -16%. For `Cc1cccc(NC(=O)CCn2ccnc2C)c1`, the “hERG current change (%, negative = inhibition) at 10uM” value was -1.42%.
